This is one part of the list.
Experiments:
Test in all cases: glycan array binding signal (z-score within array); higher = stronger binding
Details in all cases: glycan notation: IUPAC condensed, linker removed
[1] = target: Kdn(a2-3)Gal(b1-4)GlcNAc
Procedure, shortened: (§1)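 Negative Z-scores can be read as non-binding. The Z-score is calculated within each array and then averaged across arrays of one protein sequence at different concentrations or buffers and across linkers. Arrays, 3228 in all, were curated from the Consortium for Functional Glycomics database and kept only where the protein sequence was available.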

[2] = target: Man(a1-2)Man(a1-2)Man(a1-3)Man
Procedure, shortened: as §1

[3] = target: Man(a1-2)Man(a1-2)Man(a1-3)[Man(a1-2)Man(a1-3)[Man(a1-2)Man(a1-6)]Man(a1-6)]Man(b1-4)GlcNAc(b1-4)GlcNAc
Procedure, shortened: as §1

[4] = target: Man(a1-2)Man(a1-2)Man(a1-3)[Man(a1-2)Man(a1-6)[Man(a1-3)]Man(a1-6)]Man(b1-4)GlcNAc(b1-4)GlcNAc
Procedure, shortened: as §1

[5] = target: Man(a1-2)Man(a1-2)Man(a1-6)[Man(a1-3)]Man
Procedure, shortened: as §1

[6] = target: Man(a1-2)Man(a1-3)Man
Procedure, shortened: as §1

[7] = target: Man(a1-2)Man(a1-3)[Man(a1-2)Man(a1-6)]Man
Procedure, shortened: as §1

[8] = target: Man(a1-2)Man(a1-3)[Man(a1-3)[Man(a1-6)]Man(a1-6)]Man(b1-4)GlcNAc(b1-4)GlcNAc
Procedure, shortened: as §1

[9] = target: Man(a1-2)Man(a1-3)[Man(a1-6)]Man(a1-6)[Man(a1-2)Man(a1-3)]Man(b1-4)GlcNAc(b1-4)GlcNAc
Procedure, shortened: as §1

[10] = target: Man(a1-3)[Man(a1-6)]Man
Procedure, shortened: as §1

[11] = target: Man(a1-3)[Man(a1-6)]Man(a1-6)[Man(a1-3)]Man(b1-4)GlcNAc(b1-4)GlcNAc
Procedure, shortened: as §1

[12] = target: Man(a1-3)[Man(a1-6)]Man(b1-4)GlcNAc(b1-4)GlcNAc
Procedure, shortened: as §1

[13] = target: Man(b1-4)GlcNAc
Procedure, shortened: as §1

[14] = target: Neu5Ac(a2-3)Gal
Procedure, shortened: as §1

[15] = target: Neu5Ac(a2-3)Gal(b1-3)GalNAc
Procedure, shortened: as §1

[16] = target: Neu5Ac(a2-3)Gal(b1-3)GalNAc(b1-3)Gal(a1-4)Gal(b1-4)Glc
Procedure, shortened: as §1

[17] = target: Neu5Ac(a2-3)Gal(b1-3)GalNAc(b1-4)[Neu5Ac(a2-3)]Gal(b1-4)Glc
Procedure, shortened: as §1

[18] = target: Neu5Ac(a2-3)Gal(b1-3)GalNAc6S
Procedure, shortened: as §1

[19] = target: Neu5Ac(a2-3)Gal(b1-3)GlcNAc
Procedure, shortened: as §1

[20] = target: Neu5Ac(a2-3)Gal(b1-3)GlcNAc(b1-3)Gal(b1-4)GlcNAc
Procedure, shortened: as §1

[21] = target: Neu5Ac(a2-3)Gal(b1-3)GlcNAc6S
Procedure, shortened: as §1

[22] = target: Neu5Ac(a2-3)Gal(b1-3)[Fuc(a1-4)]GlcNAc
Procedure, shortened: as §1

[23] = target: Neu5Ac(a2-3)Gal(b1-3)[Fuc(a1-4)]GlcNAc(b1-3)Gal(b1-4)[Fuc(a1-3)]GlcNAc
Procedure, shortened: as §1

[24] = target: Neu5Ac(a2-3)Gal(b1-3)[Neu5Ac(a2-3)Gal(b1-4)]GlcNAc
Procedure, shortened: as §1

[25] = target: Neu5Ac(a2-3)Gal(b1-3)[Neu5Ac(a2-6)]GalNAc
Procedure, shortened: as §1

[26] = target: Neu5Ac(a2-3)Gal(b1-4)Glc
Procedure, shortened: as §1

[27] = target: Neu5Ac(a2-3)Gal(b1-4)GlcNAc
Procedure, shortened: as §1

[28] = target: Neu5Ac(a2-3)Gal(b1-4)GlcNAc(b1-3)Gal(b1-4)GlcNAc
Procedure, shortened: as §1

[29] = target: Neu5Ac(a2-3)Gal(b1-4)GlcNAc(b1-3)Gal(b1-4)GlcNAc(b1-3)Gal(b1-4)GlcNAc
Procedure, shortened: as §1

[30] = target: Neu5Ac(a2-3)Gal(b1-4)GlcNAc(b1-3)Gal(b1-4)[Fuc(a1-3)]GlcNAc
Procedure, shortened: as §1

[31] = target: Neu5Ac(a2-3)Gal(b1-4)GlcNAc6S
Procedure, shortened: as §1

[32] = target: Neu5Ac(a2-3)Gal(b1-4)[Fuc(a1-3)]GlcNAc
Procedure, shortened: as §1

[33] = target: Neu5Ac(a2-3)Gal(b1-4)[Fuc(a1-3)]GlcNAc(b1-3)Gal
Procedure, shortened: as §1

[34] = target: Neu5Ac(a2-3)Gal(b1-4)[Fuc(a1-3)]GlcNAc(b1-3)Gal(b1-4)GlcNAc
Procedure, shortened: as §1

[35] = target: Neu5Ac(a2-3)Gal(b1-4)[Fuc(a1-3)]GlcNAc(b1-3)Gal(b1-4)[Fuc(a1-3)]GlcNAc(b1-3)Gal(b1-4)[Fuc(a1-3)]GlcNAc
Procedure, shortened: as §1

[36] = target: Neu5Ac(a2-3)Gal(b1-4)[Fuc(a1-3)]GlcNAc6S
Procedure, shortened: as §1

[37] = target: Neu5Ac(a2-3)Gal6S(b1-4)GlcNAc
Procedure, shortened: as §1

[38] = target: Neu5Ac(a2-3)Gal6S(b1-4)[Fuc(a1-3)]GlcNAc
Procedure, shortened: as §1

[39] = target: Neu5Ac(a2-3)GalNAc
Procedure, shortened: as §1

[40] = target: Neu5Ac(a2-3)GalNAc(b1-4)GlcNAc
Procedure, shortened: as §1

[41] = target: Neu5Ac(a2-3)[GalNAc(b1-4)]Gal(b1-4)Glc
Procedure, shortened: as §1

[42] = target: Neu5Ac(a2-3)[GalNAc(b1-4)]Gal(b1-4)GlcNAc
Procedure, shortened: as §1

[43] = target: Neu5Ac(a2-3)[Neu5Ac(a2-6)]GalNAc
Procedure, shortened: as §1

[44] = target: Neu5Ac(a2-6)Gal(b1-4)GlcNAc
Procedure, shortened: as §1

[45] = target: Neu5Ac(a2-6)Gal(b1-4)GlcNAc(b1-2)Man(a1-3)[Neu5Ac(a2-6)Gal(b1-4)GlcNAc(b1-2)Man(a1-6)]Man(b1-4)GlcNAc(b1-4)GlcNAc
Procedure, shortened: as §1

[46] = target: Neu5Ac(a2-6)Gal(b1-4)GlcNAc(b1-3)Gal(b1-4)GlcNAc
Procedure, shortened: as §1

[47] = target: Neu5Ac(a2-6)Gal(b1-4)GlcNAc(b1-3)Gal(b1-4)[Fuc(a1-3)]GlcNAc(b1-3)Gal(b1-4)[Fuc(a1-3)]GlcNAc
Procedure, shortened: as §1

[48] = target: Neu5Ac(a2-6)Gal(b1-4)GlcNAc6S
Procedure, shortened: as §1

[49] = target: Neu5Ac(a2-6)GalNAc
Procedure, shortened: as §1

[50] = target: Neu5Ac(a2-6)GalNAc(b1-4)GlcNAc
Procedure, shortened: as §1

[51] = target: Neu5Ac(a2-8)Neu5Ac
Procedure, shortened: as §1

[52] = target: Neu5Ac(a2-8)Neu5Ac(a2-3)Gal(b1-4)Glc
Procedure, shortened: as §1

[53] = target: Neu5Ac(a2-8)Neu5Ac(a2-3)[GalNAc(b1-4)]Gal(b1-4)Glc
Procedure, shortened: as §1

[54] = target: Neu5Ac(a2-8)Neu5Ac(a2-8)Neu5Ac
Procedure, shortened: as §1

[55] = target: Neu5Ac(a2-8)Neu5Ac(a2-8)Neu5Ac(a2-3)Gal(b1-4)Glc
Procedure, shortened: as §1

[56] = target: Neu5Ac(a2-8)Neu5Ac(a2-8)Neu5Ac(a2-3)[GalNAc(b1-4)]Gal(b1-4)Glc
Procedure, shortened: as §1

[57] = target: Neu5Ac(a2-8)Neu5Ac(a2-8)Neu5Ac(a2-8)Neu5Ac(a2-3)[GalNAc(b1-4)]Gal(b1-4)Glc
Procedure, shortened: as §1

[58] = target: Neu5Ac9Ac(a2-6)Gal(b1-4)GlcNAc
Procedure, shortened: as §1

[59] = target: Neu5Gc(a2-3)Gal(b1-3)GlcNAc
Procedure, shortened: as §1

[60] = target: Neu5Gc(a2-3)Gal(b1-3)[Fuc(a1-4)]GlcNAc
Procedure, shortened: as §1

[61] = target: Neu5Gc(a2-3)Gal(b1-4)Glc
Procedure, shortened: as §1

[62] = target: Neu5Gc(a2-3)Gal(b1-4)GlcNAc
Procedure, shortened: as §1

[63] = target: Neu5Gc(a2-3)Gal(b1-4)[Fuc(a1-4)]GlcNAc
Procedure, shortened: as §1

[64] = target: Neu5Gc(a2-6)Gal(b1-4)GlcNAc
Procedure, shortened: as §1

[65] = target: Neu5Gc(a2-6)GalNAc
Procedure, shortened: as §1

B1: RNase 1 (Homo sapiens) (protein)
chain: KESRAKKFQRQHMDSDSSPSSSSTYCNQMMRRRNMTQGRCKPVNTFVHEPLVDVQNVCFQEKVTCKNGQGNCYKSNSSMHITDCRLTNGSRYPNCAYRTSPKERHIIVACEGSPYVPVHFDASVEDST
glycan array binding signal (z-score) [1]: -0.237 | glycan array binding signal (z-score) [2]: -0.204 | glycan array binding signal (z-score) [3]: -0.208 | glycan array binding signal (z-score) [4]: -0.153 | glycan array binding signal (z-score) [5]: -0.001 | glycan array binding signal (z-score) [6]: -0.174 | glycan array binding signal (z-score) [7]: -0.205 | glycan array binding signal (z-score) [8]: -0.216 | glycan array binding signal (z-score) [9]: -0.132 | glycan array binding signal (z-score) [10]: -0.147 | glycan array binding signal (z-score) [11]: -0.171 | glycan array binding signal (z-score) [12]: -0.179 | glycan array binding signal (z-score) [13]: -0.209 | glycan array binding signal (z-score) [14]: -0.215 | glycan array binding signal (z-score) [15]: -0.23 | glycan array binding signal (z-score) [16]: 0.615 | glycan array binding signal (z-score) [17]: -0.179 | glycan array binding signal (z-score) [18]: -0.195 | glycan array binding signal (z-score) [19]: -0.174 | glycan array binding signal (z-score) [20]: -0.164 | glycan array binding signal (z-score) [21]: -0.204 | glycan array binding signal (z-score) [22]: -0.235 | glycan array binding signal (z-score) [23]: 0.048 | glycan array binding signal (z-score) [24]: 0.146 | glycan array binding signal (z-score) [25]: -0.21 | glycan array binding signal (z-score) [26]: -0.225 | glycan array binding signal (z-score) [27]: -0.203 | glycan array binding signal (z-score) [28]: -0.24 | glycan array binding signal (z-score) [29]: -0.186 | glycan array binding signal (z-score) [30]: -0.22 | glycan array binding signal (z-score) [31]: -0.133 | glycan array binding signal (z-score) [32]: -0.223 | glycan array binding signal (z-score) [33]: -0.22 | glycan array binding signal (z-score) [34]: 0.086 | glycan array binding signal (z-score) [35]: -0.187 | glycan array binding signal (z-score) [36]: -0.234 | glycan array binding signal (z-score) [37]: -0.171 | glycan array binding signal (z-score) [38]: -0.207 | glycan array binding signal (z-score) [39]: -0.24 | glycan array binding signal (z-score) [40]: -0.237 | glycan array binding signal (z-score) [41]: -0.237 | glycan array binding signal (z-score) [42]: -0.14 | glycan array binding signal (z-score) [43]: -0.21 | glycan array binding signal (z-score) [44]: -0.188 | glycan array binding signal (z-score) [45]: -0.13 | glycan array binding signal (z-score) [46]: -0.25 | glycan array binding signal (z-score) [47]: -0.214 | glycan array binding signal (z-score) [48]: -0.212 | glycan array binding signal (z-score) [49]: -0.216 | glycan array binding signal (z-score) [50]: -0.214 | glycan array binding signal (z-score) [51]: -0.22 | glycan array binding signal (z-score) [52]: -0.202 | glycan array binding signal (z-score) [53]: -0.226 | glycan array binding signal (z-score) [54]: -0.221 | glycan array binding signal (z-score) [55]: -0.206 | glycan array binding signal (z-score) [56]: -0.187 | glycan array binding signal (z-score) [57]: -0.221 | glycan array binding signal (z-score) [58]: 0.183 | glycan array binding signal (z-score) [59]: -0.222 | glycan array binding signal (z-score) [60]: -0.233 | glycan array binding signal (z-score) [61]: -0.134 | glycan array binding signal (z-score) [62]: -0.226 | glycan array binding signal (z-score) [63]: -0.221 | glycan array binding signal (z-score) [64]: -0.201 | glycan array binding signal (z-score) [65]: -0.197

— the supplement of paper PMC8728848
